The campaign covered roughly 1,300 compounds. About 560 (43%) were called active. So high a share suggests a set chosen from earlier hits. This list was built around the results that the source calls inconclusive (neither active nor inactive); the mix of calls is not that of the screen. Calls follow the shape of the dose curve; as a rule, active = well fitted inhibition curve with a large enough effect; inconclusive = small, poorly fitted or top-dose-only effect; inactive = flat fitted curve, though single readings scatter. Potencies of inconclusive entries are doubtful fits and often do not repeat.
Target: Luciferin 4-monooxygenase (Photinus pyralis) (UniProt P08659)
Experiment: Firefly luciferase (FLuc-C-HiBiT) enzymatic inhibition screen - Functional assay
Conditions: purified FLuc-C-HiBiT enzyme, luciferin luminescence; series mostly up to 32.7 µM; activity change, negative = inhibition: at the top concentration
Outline: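 With 10 uM ATP present, 10 nM FLuc-C-HiBiT enzyme sits with compounds for >30 min at room temperature away from light. Substrate D-luciferin is added to 10 uM (KM), and emitted light is captured after 5-10 min by CCD camera with 10 s exposure.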
% is scaled to controls: 0 for no effect and ±100 for the full control effect; potency is read from the fitted curve at half-maximal effect; tags tell the direction and shape of the fitted curve.
Also: nearly all actives have a fitted effect of over 70% in size.

Chain of UniProt P08659 (P08659 whole entry, looked up): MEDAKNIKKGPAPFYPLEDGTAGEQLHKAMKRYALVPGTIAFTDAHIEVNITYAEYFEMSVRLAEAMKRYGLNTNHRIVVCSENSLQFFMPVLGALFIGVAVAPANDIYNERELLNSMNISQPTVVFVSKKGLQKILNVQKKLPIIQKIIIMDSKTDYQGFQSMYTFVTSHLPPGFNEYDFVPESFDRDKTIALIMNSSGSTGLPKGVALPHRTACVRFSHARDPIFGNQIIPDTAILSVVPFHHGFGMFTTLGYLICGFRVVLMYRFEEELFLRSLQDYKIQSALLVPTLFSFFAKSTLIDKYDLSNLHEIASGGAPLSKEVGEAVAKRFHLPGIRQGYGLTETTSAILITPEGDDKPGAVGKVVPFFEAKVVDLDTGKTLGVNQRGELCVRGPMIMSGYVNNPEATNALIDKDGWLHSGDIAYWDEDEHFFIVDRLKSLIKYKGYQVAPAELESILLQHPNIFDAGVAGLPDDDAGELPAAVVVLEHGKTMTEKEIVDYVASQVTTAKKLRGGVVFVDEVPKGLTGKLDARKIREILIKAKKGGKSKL

Potency, active:
Cc1ccc(C(=O)Nc2ccccc2C(=O)O)cc1S(=O)(=O)N1CCCCCC1 2.79 µM, CC(NC(=O)c1cccc2c1CCN2C(=O)Nc1ccccc1)c1cccnc1 (centres undefined) 1.76 µM, N#Cc1c(-n2ncnc2-c2cccc(Cl)c2)sc2c1CCCCC2 1.97 µM, Cc1ncccc1C(=O)N1CC(Oc2ccc(-c3nc(-c4ccccc4)no3)cc2)C1 6.24 µM, Cc1ccc(-n2nc(C)c([C@H]3C=C[C@@H](O)C3)c2C)cc1Cl 12.8 µM, CN(C)c1cccc(C(=O)NC2CCN(c3cc(-c4ccccc4)[nH]n3)C2)c1 (centres undefined) 7 µM, CCOc1ccc(-c2cc(CCCC(=O)NCCc3ccc(OCC)c(OCC)c3)no2)cc1 3.51 µM, CNc1ccc(-c2nc3ccccc3s2)cc1 0.0785 µM, Cc1ccc(Cc2cn3cc(-c4ccccc4)nc3s2)cc1 0.442 µM, NC(=O)C1CCCN(c2ncnc3c2cnn3-c2ccccc2)C1 (centres undefined) 11.1 µM, C[C@@H]1C(=O)O[C@H]2[C@H]1CC[C@@]1(C)Cc3sc(NC(=O)COCC(=O)O)nc3[C@@H](C)[C@H]21 5.7 µM, CCOC(=O)N1CCc2c(sc(NCc3cccs3)c2C(=O)Nc2ccc(OC)cc2OC)C1 3.13 µM

Potency, inconclusive:
Cn1ccc2c(C(=O)NCc3cccnc3)nc(-c3ccc(N4CCOCC4)cc3)cc21 18 µM [inhibitor, partial curve], CCc1ccc2oc(-c3cccc(NC(=O)c4cc5ccccc5o4)c3)nc2c1 12.4 µM [inhibitor, partial curve], Cc1ccc(NC(=O)c2ncn(-c3ccccc3)n2)cc1Cl 4.95 µM [inhibitor, full curve], COc1cccc(Nc2cc3c(cn2)CN(Cc2cccnc2)CCN3)c1 10.1 µM [inhibitor, full curve], Cc1cccc(OCCn2nnc3sc4c(c3c2=O)CCCC4)c1 12.4 µM [inhibitor, partial curve], COc1ccc(-c2nc3ccccc3s2)cc1NC(=O)c1ccccc1OC 11.1 µM [inhibitor, partial curve, poor fit], O=C(c1ccc2oc(-c3cccc(F)c3)nc2c1)N1CCCCC1CCO (centres undefined) 14 µM [inhibitor, partial curve, poor fit], COc1ccc(-c2noc(Nc3ccc(OC)c(OC)c3)n2)cc1 11.1 µM [inhibitor, partial curve], COc1ccc(NC(=O)c2cc3ccccc3o2)c(OC)c1 4.95 µM [inhibitor, full curve], CCC(C(=O)NCCn1ccn2nc(-c3ccc(OC)cc3)cc2c1=O)c1ccccc1 (centres undefined) 11.1 µM [inhibitor, partial curve], O=C1N(c2ccccc2)C[C@H]2CN(Cc3ccccc3)CCN12 20.2 µM [inhibitor, partial curve], O=C(Nc1nn(-c2cccc(F)c2)c2cccc(N3CCOCC3)c12)C1CCC1 11.1 µM [inhibitor, partial curve], Fc1cc(Nc2cnc3ccc(-c4ccccc4)nn23)cc(N2CCOCC2)c1 16.1 µM [inhibitor, partial curve], COc1ccc(-c2cnc(Nc3ccccc3)c3c2CCO3)cn1 18 µM [inhibitor, partial curve], COc1ccc(-c2nnc(SC(C)C(=O)O)o2)cc1 (centres undefined) 14 µM [inhibitor, partial curve], Cc1ccc(/C=C/C(=O)N2CCC(c3nc4ccccc4o3)CC2)cc1 11.1 µM [inhibitor, partial curve], Cc1nn(-c2ccc(C(C)(C)C)cc2)c(C)c1[C@@H]1C=C[C@@H](NC(=O)c2ccco2)C1 20.2 µM [inhibitor, partial curve], O=C(NCc1ccoc1)c1ccc2nc(-c3ccc(F)cc3)cn2c1 11.1 µM [inhibitor, partial curve], Cc1ccc(-n2nc(C)c([C@@H]3C=C[C@@H](NC(=O)Nc4ccc(Cl)cc4)C3)c2C)cc1Cl 9.89 µM [inhibitor, partial curve], COc1ccc(C(=O)NCCC2CCN(C(=O)Nc3cc(F)cc(F)c3)CC2)cc1 9.89 µM [inhibitor, partial curve], COc1ccc(C(=O)N2CCCC(c3nc(-c4ccccc4)no3)CCNC(=O)CC2)c(OC)n1 (centres undefined) 11.1 µM [inhibitor, partial curve], CCC(=O)Nc1ccc2nnc(-c3ccc(C(=O)Nc4ccc5c(c4)OCCO5)cc3)n2c1 8.81 µM [inhibitor, partial curve], Fc1ccc(Nc2ncc(-c3cccnc3)c3c2OCC3)cc1 11.4 µM [inhibitor, partial curve], O=C(c1ccc(CSc2nc3ccncc3n2Cc2ccccc2F)cc1)N1CCCCC1 14 µM [inhibitor, partial curve], CCOP(=O)(Cc1ccc(-c2nc3ccccc3s2)cc1)OCC 11.1 µM [inhibitor, partial curve], Cc1cn2nc(C(=O)Nc3ccc(N(C)C)cc3)cc2c(N2CCCC2)n1 11.1 µM [inhibitor, partial curve], Cc1c(NC(=O)Cc2ccccc2)cccc1-c1nc2ccccc2s1 0.7 µM [inhibitor, full curve], COc1ccc(-c2nc3cc(F)ccc3s2)cc1OC 1.57 µM [inhibitor, partial curve], Cc1ccc2nc(-c3cccc(NC(=O)CSc4ccc(Cl)cc4)c3)oc2c1 3.51 µM [inhibitor, partial curve], COc1ccc(-c2nc3c4cnn(-c5ccccc5F)c4ncn3n2)cc1 0.785 µM [inhibitor, full curve], C[S+](=O)([O-])CCn1ncc2cc(OCc3cccc(-c4ccccc4)c3)ccc21 6.4 µM [inhibitor, partial curve, poor fit], O=C(Nc1ccccc1F)c1ccc(-c2ccccc2)s1 2.48 µM [inhibitor, full curve], Fc1ccc(Cc2cn3cc(-c4ccc(Cl)cc4)nc3s2)cc1 3.51 µM [inhibitor, partial curve], CCOc1ccc2nc(N3CCN(C(=O)c4ccco4)CC3)sc2c1 12.4 µM [inhibitor, partial curve], COc1ccc2cc(C3CN(C(=O)c4cccc(CO)n4)CCO3)ccc2c1 (centres undefined) 11.1 µM [inhibitor, partial curve], Cc1ccc(-c2cc3c(=O)n(CCNC(=O)c4cccnc4)ccn3n2)c(C)c1 9.89 µM [inhibitor, partial curve], Cc1c(C(=O)NCc2cccc(Br)c2)oc2ccc3c(c12)C(=O)CC(C)(C)O3 11.1 µM [inhibitor, partial curve], COc1ccccc1OCc1nc2ccccc2n1Cc1ccccc1 14 µM [inhibitor, partial curve, poor fit], O=C(NCc1cccc(Cl)c1)C1CCCN(c2nn3cc(-c4ccc(F)cc4)nc3s2)C1 (centres undefined) 8.81 µM [inhibitor, partial curve], CCCc1ccc(OCc2ccc(C(=O)Nc3ccccc3C(=O)OC)o2)cc1 12.4 µM [inhibitor, partial curve], COc1ccc(-c2cc(N3CCCC(NC(=O)c4cccc5[nH]ccc45)C3)n[nH]2)cc1 (centres undefined) 14 µM [inhibitor, partial curve]

Activity change, negative = inhibition, inactive:
Cc1ccc(C(=O)Nc2ccc(-c3nc4ccccc4s3)c(O)c2)c(C)c1 -0.0032%, Nc1ncnc2c1ncn2[C@@H]1O[C@H](CO)[C@@H](O)[C@@H]1O -9.27%, COc1ccc(N2CCN(C(=O)Cn3cccc3-c3nc(-c4ccc5c(c4)OCO5)no3)CC2)cc1 -3.23%, COc1cccc(-c2nc3cc(NC(=O)c4ccc(F)c(C#N)c4)ccc3s2)c1 -6.92%, O=C(COc1ccccc1Cl)Nc1ccc(-c2nc3ccccc3s2)cc1 -4.96%, COc1cccc(-c2nc3cc(NC(=O)c4ccc(C)c([N+](=O)[O-])c4)ccc3s2)c1 -15%, COc1cc(OC)cc(C(=O)Nc2ccc(-c3nc4ccccc4s3)cc2C)c1 3.24%, O=C([C@@H]1C[C@@H](O)[C@H](O)[C@@H]2NC(=S)N(c3ccc(OC(F)(F)F)cc3)[C@@H]21)N1CCCCC1 -13%, c1ccc(CCCNc2nccc(-c3ccccn3)n2)nc1 1.15%, COCCOc1nc(N)c2[nH]c(=O)n(Cc3ccc(C(=O)O)cc3)c2n1 -1.18% [at 11.8 µM], c1ccc(CCCc2noc(-c3ccc(NCc4ccccn4)nc3)n2)cc1 -10%, Oc1cc(-c2nc3ccccc3s2)cc2c1OCCN(Cc1cccn1-c1ccccn1)C2 -18.5%, C=C1[C@H](CO)[C@@H](O)C[C@@H]1n1cnc2c(=O)[nH]c(N)nc21 5.76%, COc1c(C)cccc1C(=O)Nc1ccc(-c2nc3ccccc3s2)c(Cl)c1 -15.5%, COc1ccccc1OC1(C(=O)O)CCN(c2ncnc3nc[nH]c23)CC1 2.15%, CCS(=O)(=O)c1ccccc1C(=O)Nc1ccc(-c2nc3ccccc3s2)cc1 -9.32%

— PubChem BioAssay AID1963320 (National Center for Advancing Translational Sciences (NCATS), 2024)
